Experimental data taken from PubChem BioAssay AID463173 (ICCB-Longwood Screening Facility, Harvard Medical School, 2010).
Screen size: about 52,000 compounds; about 1,700 (3.3%) were called active. Cut-off read from the data, not from the text of the source: active = survival mostly below about 52% (no sharp cut-off); inactive = mostly above about 56%. This is one part of the list.

The molecules below were run on Wild type (assay: growth inhibition of S. aureus wild type versus tarO mutant, primary screen, teichoic acid synthesis inhibitors, RN4220, OD600 (AID 463173)). Conditions: S. aureus RN4220 wild type/DeltatarO growth, OD600, 18 h, hits give low values, screened at 18.75 µg/mL (by protocol).
`Cc1nnc(NC(=O)CSc2nccn2-c2ccc(Cl)cc2)s1` was tested, and the survival was inactive: 126%.
In the case of `O=C(CCC1CCCC1)Nc1ccc2c(c1)OCO2`, the survival is reported as inactive: 106%.
In the case of `NC(=O)CSc1nsc(SCC(N)=O)n1`, the survival is reported as inactive: 109%.
For `O=S(=O)(c1ccccc1)c1nc(-c2cccs2)oc1SCc1ccccc1Cl`, the survival was inactive: 68%.
`Cc1ccc(OCc2nc(-c3ccc(C(=O)N4CCN(c5cc(Cl)ccc5C)CC4)cc3)oc2C)cc1` was tested, and the survival was inactive: 70%.
`COC(=O)c1ccc(C(=O)OC)c(NC(=O)N2CC3CCCN3c3ccccc32)c1` (stereo not drawn) was tested, and the survival was inactive: 85%.
In the case of `CCOC(=O)CC(=O)CSc1nc2ccccc2c(=O)n1-c1ccc(C(=O)NCCOC)cc1`, the survival is reported as inactive: 73%.
In the case of `N#Cc1c(NC(=O)C(F)(F)F)oc(-c2ccccc2)c1-c1ccccc1`, the survival is reported as inactive: 43%.
In the case of `Cc1ccc(Cl)cc1N1CCN(C(=O)c2cc3c(=O)n(C)c4ccccc4c3s2)CC1`, the survival is reported as inactive: 62%.
For `CCOc1ccccc1NC(=O)CSc1nc2c([nH]c3ccccc32)c(=O)n1-c1ccccc1`, the survival was inactive: 75%.
In the case of `O=C(CC1NCCNC1=O)Nc1ccccc1F` (stereo not drawn), the survival is reported as inactive: 92%.
In the case of `CCOC(=O)c1c(-c2ccc(C)cc2)csc1NC(=O)c1cc(=O)c2cc(Cl)ccc2o1`, the survival is reported as inactive: 115%.
In the case of `O=C(C1CC1)N1CCc2cc(Br)cc(S(=O)(=O)N3CCN(c4cccc(Cl)c4)CC3)c21`, the survival is reported as inactive: 84%.
With `Cc1ccc2nc(COc3cccc(NC(=O)COc4ccccc4F)c3)cc(=O)n2c1` the survival was inactive: 130%.
With `CCOC(=O)c1cc(-c2ccccc2)n(-c2cccc(C(=O)Nc3cccc(C)c3)c2)c1C` the survival was inactive: 121%.
In the case of `O=C(Nc1ccc2nc(SCC(=O)N3CCCC3)sc2c1)c1ccc(Br)cc1`, the survival is reported as inactive: 118%.
For `Cc1ccc(CSc2ccc3nnc(CCNS(=O)(=O)c4ccc(C)cc4)n3n2)cc1`, the survival was inactive: 82%.
For `Cc1cccc(OCC(=O)OCc2cc(=O)n3nc(-c4cccs4)sc3n2)c1`, the survival was inactive: 72%.
With `Cc1ccc(-n2ncc(C(=O)N3CCN(c4ccccn4)CC3)c2C2CCN(C(=O)OC(C)(C)C)CC2)cc1` the survival was inactive: 68%.
For `O=C(NCc1ccccc1)c1nc[nH]c1C(=O)NCc1ccccc1`, the survival was inactive: 123%.
In the case of `CCC(C)NC(=O)Cn1c(=O)n(-c2ccc(Cl)c(Cl)c2)c(=O)c2c(C)c(C(=O)N(CC)CC)sc21` (stereo not drawn), the survival is reported as inactive: 49%.
For `Cc1cccc(NC2=NCC(=O)N2Cc2ccccc2)c1`, the survival was inactive: 102%.
`CCc1nn(Cc2cccc(F)c2)c(=O)c2cc3cc(C)ccc3n12` was tested, and the survival was inactive: 31%.
In the case of `COc1ccc(CN(C(=O)c2cc3sccc3n2C)C2CC(C)(C)NC(C)(C)C2)cc1`, the survival is reported as inactive: 121%.
For `Cc1ccc(NC(=O)c2cc(S(=O)(=O)N3CCCc4ccccc43)ccc2F)cc1F`, the survival was inactive: 97%.
With `COc1ccc(Nc2c(-c3ccc(C)o3)nc3ccc(Cl)cn23)cc1` the survival was inactive: 87%.
For `COC(=O)c1ccccc1NC(=O)Cn1c(=O)nc(-c2ccccc2)c2cc(Cl)ccc21`, the survival was inactive: 72%.
`Cc1cc(Nc2ccc(C(=O)O)cc2)nc(N)n1` was tested, and the survival was inactive: 103%.
With `Cc1cccc(C)c1Nc1c(-c2cccs2)nc2ncccn12` the survival was inactive: 72%.
With `CCS(=O)(=O)N1CCC(NC(=O)c2ccccc2Cl)CC1` the survival was inactive: 127%.
With `Cc1oc(CC(C)C)cc1C(=O)O` the survival was inactive: 110%.
For `CCCCC(=O)Nc1cc2nn(-c3ccc(OCC)cc3)nc2cc1C`, the survival was inactive: 78%.
With `Cc1ccc(OCC(=O)Nc2cc(-c3nc4ccccc4[nH]3)ccc2C)c(C)c1` the survival was inactive: 107%.
With `NNC(=O)c1ccc2[nH]c3c(c2c1)CCCC3` the survival was inactive: 114%.
In the case of `c1ccc(CCN2CNc3nc4ccccc4n3C2)cc1`, the survival is reported as inactive: 108%.
`Cc1cccc(Cn2cc(S(=O)(=O)c3ccc(Cl)cc3)c(=O)c3cc4c(cc32)OCO4)c1` was tested, and the survival was inactive: 98%.
`CC(=O)c1ccc(NC(=O)c2ccc(NC(=O)CCS(=O)(=O)c3cccs3)cc2)cc1` was tested, and the survival was inactive: 72%.
With `Cc1cccc(OCCSc2nc3ccc(NC(=O)c4cccs4)cc3s2)c1` the survival was inactive: 65%.
With `O=C(c1ccco1)N1CCN(C(=O)C2CCCN(S(=O)(=O)Cc3ccccc3)C2)CC1` (stereo not drawn) the survival was inactive: 101%.
For `CS(=O)(=O)N1CCC(n2c(C(F)(F)F)nc3cccnc32)CC1`, the survival was inactive: 60%.
With `CCn1c(Cc2ccccc2)nnc1SCC(=O)N1CCCCC1C` (stereo not drawn) the survival was inactive: 116%.
With `Cn1c(=O)c2c(SCC(=O)NCC3CCCO3)nc(-c3cccc(F)c3)nc2n(C)c1=O` (stereo not drawn) the survival was inactive: 85%.
For `Cc1ccc(NC(=O)c2c(C(=O)Nc3ccccc3)sc3nc(C)cc(=O)n23)c(C)c1`, the survival was inactive: 88%.
With `CCOC(=O)CSc1nc(-c2ccccc2)cc(C(F)(F)F)c1C#N` the survival was inactive: 85%.
`Cc1nn(-c2ccccc2)c(OC(=O)c2ccc(F)cc2)c1S(=O)(=O)c1ccccc1` was tested, and the survival was inactive: 59%.
With `Fc1ccc(N=C(CN2CCCCC2)N2CCCCC2)cc1` the survival was inactive: 108%.
With `CCn1c(CN2CCCCC2)nc2cc(NC(=O)c3ccccc3[N+](=O)[O-])ccc21` the survival was inactive: 83%.
For `CSc1ncc(C(=O)NCc2ccc(Cl)cc2)c(C(F)(F)F)n1`, the survival was inactive: 74%.
For `CCCn1cc(S(=O)(=O)c2ccc(C)cc2)c(=O)c2cc(OC)c(OC)cc21`, the survival was inactive: 77%.
`COc1cccc(NC(=O)C(=O)NCCc2csc(-c3ccc(C)cc3)n2)c1` was tested, and the survival was inactive: 85%.
In the case of `COc1ccc(C2=C(C)C(N3CCC(C(=O)Nc4cc(C)ccc4C)CC3)=NS2(=O)=O)cc1`, the survival is reported as inactive: 55%.
`CCN(C(=O)CCNC(=O)Cn1cnc2ccccc2c1=O)c1cccc(Cl)c1` was tested, and the survival was inactive: 83%.
In the case of `CCOc1ccc(C(=O)Nc2ccc(C(=O)OCc3cc(=O)n4ccsc4n3)cc2)cc1`, the survival is reported as inactive: 87%.
In the case of `O=C(Nc1cccc2cccnc12)c1cccc2ccccc12`, the survival is reported as active: 1%.
`CCOC(=O)c1ccc(NC(=O)c2csc3c2CCCC3)cc1` was tested, and the survival was inactive: 26%.
With `COC(=O)c1ccc(Cl)cc1NC(=O)NCc1c(-n2cccc2)sc2c1CCCC2` the survival was inactive: 79%.
`O=C(NC1C2CCCC1CN(C1CC1)C2)c1ccc(Cl)cc1` (stereo not drawn) was tested, and the survival was inactive: 105%.
`c1ccc(Cn2ncc3c(N4CCCCC4)ncnc32)cc1` was tested, and the survival was inactive: 109%.
